Source: publication PMC4336329 (PLoS ONE, 2015)
Out of some 310,000 compounds screened, about 2,200 (0.71%) showed an effect of 50% or more. The effect is printed as a negative number. This is one part of the list.

molecular target: human ether-à-go-go-related gene (hERG) potassium channel (human, UniProt Q12809); assay: primary screen, population patch clamp on CHO cells stably expressing hERG
Sequence (Q12809 whole entry, looked up): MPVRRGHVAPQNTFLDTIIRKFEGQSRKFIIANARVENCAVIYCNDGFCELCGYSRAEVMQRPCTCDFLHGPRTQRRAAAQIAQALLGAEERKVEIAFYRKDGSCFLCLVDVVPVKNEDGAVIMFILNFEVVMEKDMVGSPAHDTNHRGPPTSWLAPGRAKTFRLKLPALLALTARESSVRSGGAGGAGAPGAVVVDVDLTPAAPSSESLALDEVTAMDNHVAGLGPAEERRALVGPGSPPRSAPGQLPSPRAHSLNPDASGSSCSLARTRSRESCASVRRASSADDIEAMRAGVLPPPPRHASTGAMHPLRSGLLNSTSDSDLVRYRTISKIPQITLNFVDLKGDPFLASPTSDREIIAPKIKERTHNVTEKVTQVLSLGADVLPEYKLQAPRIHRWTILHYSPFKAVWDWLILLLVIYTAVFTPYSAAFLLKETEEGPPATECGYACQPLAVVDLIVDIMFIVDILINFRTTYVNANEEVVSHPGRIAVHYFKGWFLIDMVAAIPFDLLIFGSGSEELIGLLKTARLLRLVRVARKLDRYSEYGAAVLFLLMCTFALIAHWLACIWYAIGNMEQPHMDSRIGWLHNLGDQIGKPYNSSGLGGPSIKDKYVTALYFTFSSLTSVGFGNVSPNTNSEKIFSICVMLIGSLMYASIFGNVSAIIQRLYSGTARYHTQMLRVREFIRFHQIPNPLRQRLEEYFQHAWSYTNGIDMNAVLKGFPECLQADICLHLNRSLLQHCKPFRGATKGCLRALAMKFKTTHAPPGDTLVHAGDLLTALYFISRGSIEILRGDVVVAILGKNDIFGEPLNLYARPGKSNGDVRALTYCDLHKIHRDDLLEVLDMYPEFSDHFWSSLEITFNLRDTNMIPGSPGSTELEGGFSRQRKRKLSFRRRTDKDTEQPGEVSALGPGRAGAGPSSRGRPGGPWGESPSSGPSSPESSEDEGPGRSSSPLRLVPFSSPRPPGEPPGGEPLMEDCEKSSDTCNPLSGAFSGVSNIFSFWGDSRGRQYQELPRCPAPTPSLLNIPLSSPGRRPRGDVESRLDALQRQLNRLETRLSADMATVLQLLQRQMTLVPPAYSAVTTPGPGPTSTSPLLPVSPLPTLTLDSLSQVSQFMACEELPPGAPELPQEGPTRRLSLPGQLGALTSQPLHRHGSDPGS

SMILES	hERG current change (%, negative = inhibition) at 1uM [%]
Cc1cccc(OCCCOc2cccc3cccnc23)c1C	11.2
O=C(CSc1ncn[nH]1)Nc1ccc(S(=O)(=O)N2CCCC2)cc1	14.9
N/C(=N\N=C\c1ccc2c(c1)OCO2)c1nonc1N	10
Cc1ccc(C(=O)Oc2oc(-c3ccco3)nc2C=Nc2ccc(Cl)cc2)cc1	7.08
CCOc1ccc(-c2nc(CSCC(=O)N3CCN(c4cccc(OC)c4)CC3)c(C)o2)cc1	6.52
COc1ccc(S(=O)(=O)N2CCN(c3ccc4nnc(-c5ccccc5)n4n3)CC2)cc1	-47.8
O=C1c2ccccc2C(=O)N1/N=C/c1ccc(Oc2ccc([N+](=O)[O-])cn2)cc1	-12.4
COc1ccc(-c2nn(-c3ccccc3)cc2/C=C(/C#N)C(N)=O)cc1[N+](=O)[O-]	5.42
CC(C)CNC(=O)COC(=O)/C=C/c1ccco1	6.36
CCOC(=O)C1(CCc2ccccc2)CCN(Cc2cccc3cnccc23)CC1	-4.67
[Cl-].[NH3+][C@@H](Cc1ccccc1)C(=O)N1CCOCC1	15.1
CCOC(=O)C1=C(c2ccccc2)NC(=O)NC1c1cc(OCC)c(O)c([N+](=O)[O-])c1 (stereo not shown)	18
O=C(NC1CCN(Cc2ccccc2)CC1)c1ccc(S(=O)(=O)NCc2ccco2)cc1	4.96
O=C1c2ccccc2C(=O)N1CC(O)COc1ccc(Br)cc1 (stereo not shown)	10.6
CC(=O)Nc1ccc(N2C(=O)C3C4C=CC(CC4)C3C2=O)cc1 (stereo not shown)	2.85
Cc1cccc(NC(=S)N2CCN(C(=O)c3ccco3)CC2)c1	5.07
CCOC(=O)c1c(NC(=O)c2cccnc2)sc(C(C)=O)c1C	6.21
CC1=C(C(=O)NCc2ccccc2)C(c2ccccc2OCC(N)=O)NC(=O)N1 (stereo not shown)	1.35
CC(C)C(c1nnnn1Cc1ccc2c(c1)OCO2)N1CCN(c2ccccc2)CC1 (stereo not shown)	19.2
CCO[C@@H]1OC(C(=O)O)=C[C@H](C2CCCCC2)[C@H]1CCCO	10.6
O=C(COc1ccc(Cl)c2cccnc12)N1CCOCC1	11.2
Cc1cc(C(=O)Nc2ccc(Cl)cc2)c(C)n1Cc1cccs1	10.2

SMILES	hERG current change (%, negative = inhibition) at 1uM [%]
O=C(COC(=O)CN1C(=O)c2ccccc2C1=O)Nc1ncc(Cl)cc1Cl	3.24
CCOC(=O)c1c(C)[nH]c(C(=O)OCC(=O)N2CC(C)OC(C)C2)c1C (stereo not shown)	17.4
Cc1onc(-c2c(F)cccc2Cl)c1C(=O)Nc1ccccc1N1CCOCC1	14.8
COc1cccc(C(=O)NC(=S)Nc2ccc([N+](=O)[O-])cc2C)c1	5.88
Cc1cc(OCc2cc(C(=O)N(C)CCOc3ccccc3)no2)cc(C)c1Cl	6.19
Cc1c2ccccc2nc2c(F)c(NCCO)c(F)c(F)c12	13.9
COc1cc(C#N)ccc1OCC(=O)Nc1cccc(S(=O)(=O)N2CCCC2)c1	7.57
COc1ccc(-c2nnc(SCC(=O)Nc3ncc(C(F)(F)F)cc3Cl)n2CC(C)C)cc1	-8.9
Cc1ccc(S(=O)(=O)N2[C@@H](c3ccccc3)C(C(=O)O)=CC[C@H]2c2ccc(Cl)c(Cl)c2)cc1	17.7
Cc1ccc(CNC(=O)CN(C(=O)C2(C)CC(=O)N=C3C=CC=CN32)c2cccc(C)c2C)cc1 (stereo not shown)	12.6
Cc1ccc(C2=NN(CC(=O)NCc3ccccn3)C(=O)CC2)cc1	0.28
CC1CN(C(=O)Cn2cc(S(=O)(=O)CC(=O)N3CCOCC3)c3ccccc32)CC(C)O1 (stereo not shown)	12.9
Cc1ccc(CCNC(=O)C2CCCN(S(=O)(=O)c3cccc4nsnc34)C2)cc1 (stereo not shown)	12.6
S=C(c1ccccc1)N1CCCc2ccccc21	3.14
COc1cc(NS(=O)(=O)c2ccc(N/C=C(\C#N)c3nc4ccccc4o3)cc2)nc(OC)n1	0.344
CC(=O)Nc1ccc(Nc2nnc(-c3ccc(C)c(S(N)(=O)=O)c3)c3ccccc23)cc1	12.8
COc1ccc(CS(=O)(=O)c2nc(C)cc(C)c2S(C)(=O)=O)cc1	6.6
Cc1ccc(C)c(CSc2nnc(C)c(=O)[nH]2)c1	14.8
CCOC(=O)c1c(C)oc(C)c(C(=O)OCC)c1=O	17.1
Cc1ccc2nc(C)c3c(c2c1)SCC3	1.85
Cc1ccc(NC(=O)CSc2ccccc2)cc1S(=O)(=O)N1CCCCC1	9.21
CN(C(=O)c1ccc2c(=O)n3c(nc2c1)CCCCC3)c1ccccc1Cl	-0.15

SMILES	hERG current change (%, negative = inhibition) at 1uM [%]
Cc1cc(=O)[nH]c(SCC(=O)Nc2ccc(F)cc2)c1C#N	12.5
CN1CCN(C(=O)COc2ccc(S(=O)(=O)Nc3ccc(F)cc3)cc2)CC1	12.6
Cc1ccc(NC(=O)CCCn2c(=S)[nH]c3ccsc3c2=O)cc1C	18.7
CCN(CC)CCN1C(=O)C(O)=C(C(=O)c2cc3ccccc3o2)C1c1cccnc1 (stereo not shown)	5.98
CN(Cc1ccccc1)S(=O)(=O)CCNC(=O)c1ccc2c(c1)OCO2	18.6
O=C(/C=C/c1ccc(F)cc1)NC(=S)Nc1ccccc1O	13.6
Oc1c(Cl)cc(Cl)cc1CNc1nccs1	12.3
OCCC1CN(CC2CC2)CCN1Cc1ccc(F)c(F)c1 (stereo not shown)	9.99
Cl.O=C(OCCN1CCOCC1)c1cccs1	10.2
CN(C)c1cccc2c1c(NC(=O)c1ccc(Cl)cc1)nn2C	14.9
c1ccc(CN2CCC(Nc3ncnc4sccc34)CC2)cc1	-31.2
CSc1cccc(NC(=S)N(CCN(C)C)C(C)c2ccccn2)c1 (stereo not shown)	-0.249
O=C(NCCCN1CCOCC1)C(Cl)(Cl)Cl	16.6
COc1ccc(-c2cc3nc(C4CCN(C(=O)OC(C)(C)C)CC4)c(C(=O)O)cn3n2)cc1	-12.2
COc1ccc(N=Nc2cc(-c3ccccc3)ccc2O)cc1	3.31
COc1cccc2sc3ccc(NCc4ccc5c(c4)OCO5)cc3c(=O)c12	14.1
Cc1ccc(-n2nc3c(c2NC(=O)c2ccc4c(c2)OCO4)CS(=O)C3)cc1 (stereo not shown)	9.01
CN(CC(=O)Nc1ccc(N2CCOCC2)cc1)CC(=O)Nc1ccc([N+](=O)[O-])cc1Br	15.7
COc1ccc(C)cc1NC(=O)/C=C/c1ccc(OC)c(S(=O)(=O)N2CCOCC2)c1	7.82
O=C(CSCc1c(Cl)cccc1Cl)NN=C1CCCC1	9.1
Cc1cc2oc(=O)cc(CSc3nc(N)cc(N)n3)c2cc1C	11.7
C/C(CCc1oc2c(Br)cc(Br)cc2c1-c1ccc(C)o1)=N\O	14.3

SMILES	hERG current change (%, negative = inhibition) at 1uM [%]
CCn1c(CSc2nc(C)cc(C)n2)nnc1SCC(N)=O	14.1
Cc1cc(N2CCCC2=O)cc(C)c1S(=O)(=O)Nc1c(C)nn(C)c1C	19.1
O=C(CN1C(=O)c2ccccc2S1(=O)=O)N1CCc2ccccc21	9.52
CCCCOC(=O)c1ccc(NC(=O)C(=O)NCCN(CC)CC)cc1	-14.7
CS(=O)(=O)Nc1cccc(C2=NN(S(=O)(=O)c3ccccc3)C(c3ccco3)C2)c1 (stereo not shown)	3.15
CCOc1cc(C(=O)Nc2ccc(S(=O)(=O)Nc3nnc(CC)s3)cc2)cc(OCC)c1OCC	13.1
CC(=NCc1ccc2c(c1)OCO2)c1c(O)n(-c2ccc(C)cc2)c(=O)[nH]c1=O	9.74
O=C(Nc1ccc(F)cc1F)c1cccn(Cc2ccccc2)c1=O	9.82
O=C(Nc1cccnc1)Nc1cccc([N+](=O)[O-])c1	5.71
N#Cc1cnn2c1nc(N1CCOCC1)c1ccccc12	8.18
CC(=O)Oc1ccc2c(C)cc(=O)[nH]c2c1	21
O=C(CN(Cc1ccccc1)C(=O)CCC(=O)Nc1nccs1)NCc1ccc(F)cc1	12.6
CCOC(=O)[C@H]1[C@H]2COc3ccc(OC)cc3[C@@H]2N2C(=O)c3cc(F)c(F)cc3NC(=O)[C@@]12C	12.2
Cc1ccccc1-c1nc2sc3c(c2c(=O)o1)CCC3	13.2
Cc1ccc(S(=O)(=O)N/N=C2/CCCCC2C2CCCCC2)cc1[N+](=O)[O-] (stereo not shown)	4.4
O=C(NCC(=O)N(c1cnc2ccccc2c1)C(C(=O)NC1CCCC1)c1ccncc1)c1ccco1 (stereo not shown)	11.9
COCCn1c(Cc2ccccc2)nnc1SCc1ccc([N+](=O)[O-])cc1	7.13
CCc1ccccc1Nc1nc(N)nc(COC(=O)C2=COCCO2)n1	8.02
Cc1cc(-c2[nH]nc3c2C(c2ccc(Cl)cc2)C(C#N)=C(N)O3)c(C)s1 (stereo not shown)	9.04
